# In the supplement of paper PMC8728848:
# Some of the results follow.
# Columns and labels:
# Experiment in all cases: glycan array binding signal (z-score within array); higher = stronger binding
# Settings in all cases: glycan notation: IUPAC condensed, linker removed; mutation: R82H, R255H
# [1] = molecular target: GlcNAc(b1-3)Gal(b1-4)GlcNAc(b1-2)Man(a1-3)[GlcNAc(b1-3)Gal(b1-4)GlcNAc(b1-2)Man(a1-6)]Man(b1-4)GlcNAc(b1-4)GlcNAc
# How it was run: (§1)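 From the Consortium for Functional Glycomics database, 3228 arrays were curated, keeping only those whose protein sequence was available. Binding is given as a within-array Z-score averaged across arrays sharing a protein sequence and across linkers. Negative Z-scores can be read as non-binding.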
# [2] = molecular target: GlcNAc(b1-3)Gal(b1-4)GlcNAc(b1-2)Man(a1-3)[GlcNAc(b1-3)Gal(b1-4)GlcNAc(b1-2)Man(a1-6)]Man(b1-4)GlcNAc(b1-4)[Fuc(a1-6)]GlcNAc
# How it was run: as §1
# [3] = molecular target: GlcNAc(b1-3)Gal(b1-4)GlcNAc(b1-2)[GlcNAc(b1-3)Gal(b1-4)GlcNAc(b1-6)]Man(a1-6)[GlcNAc(b1-3)Gal(b1-4)GlcNAc(b1-2)Man(a1-3)]Man(b1-4)GlcNAc(b1-4)GlcNAc
# How it was run: as §1
# [4] = molecular target: GlcNAc(b1-3)Gal(b1-4)GlcNAc(b1-3)Gal(b1-4)GlcNAc
# How it was run: as §1
# [5] = molecular target: GlcNAc(b1-3)Gal(b1-4)GlcNAc(b1-3)Gal(b1-4)GlcNAc(b1-2)Man(a1-3)[GlcNAc(b1-3)Gal(b1-4)GlcNAc(b1-3)Gal(b1-4)GlcNAc(b1-2)Man(a1-6)]Man(b1-4)GlcNAc(b1-4)GlcNAc
# How it was run: as §1
# [6] = molecular target: GlcNAc(b1-3)Gal(b1-4)GlcNAc(b1-3)Gal(b1-4)GlcNAc(b1-2)Man(a1-3)[GlcNAc(b1-3)Gal(b1-4)GlcNAc(b1-3)Gal(b1-4)GlcNAc(b1-2)Man(a1-6)]Man(b1-4)GlcNAc(b1-4)[Fuc(a1-6)]GlcNAc
# How it was run: as §1
# [7] = molecular target: GlcNAc(b1-3)Gal(b1-4)GlcNAc(b1-3)Gal(b1-4)GlcNAc(b1-2)[GlcNAc(b1-3)Gal(b1-4)GlcNAc(b1-3)Gal(b1-4)GlcNAc(b1-6)]Man(a1-6)[GlcNAc(b1-3)Gal(b1-4)GlcNAc(b1-3)Gal(b1-4)GlcNAc(b1-2)Man(a1-3)]Man(b1-4)GlcNAc(b1-4)[Fuc(a1-6)]GlcNAc
# How it was run: as §1
# [8] = molecular target: GlcNAc(b1-3)Gal(b1-4)GlcNAc(b1-3)Gal(b1-4)GlcNAc(b1-3)Gal(b1-4)GlcNAc(b1-2)Man(a1-3)[GlcNAc(b1-3)Gal(b1-4)GlcNAc(b1-3)Gal(b1-4)GlcNAc(b1-3)Gal(b1-4)GlcNAc(b1-2)Man(a1-6)]Man(b1-4)GlcNAc(b1-4)GlcNAc
# How it was run: as §1
# [9] = molecular target: GlcNAc(b1-3)Gal(b1-4)GlcNAc(b1-3)Gal(b1-4)GlcNAc(b1-3)Gal(b1-4)GlcNAc(b1-2)Man(a1-3)[GlcNAc(b1-3)Gal(b1-4)GlcNAc(b1-3)Gal(b1-4)GlcNAc(b1-3)Gal(b1-4)GlcNAc(b1-2)Man(a1-6)]Man(b1-4)GlcNAc(b1-4)[Fuc(a1-6)]GlcNAc
# How it was run: as §1
# [10] = molecular target: GlcNAc(b1-3)Gal(b1-4)GlcNAc(b1-3)Gal(b1-4)GlcNAc(b1-3)Gal(b1-4)GlcNAc(b1-2)[GlcNAc(b1-3)Gal(b1-4)GlcNAc(b1-3)Gal(b1-4)GlcNAc(b1-3)Gal(b1-4)GlcNAc(b1-6)]Man(a1-6)[GlcNAc(b1-3)Gal(b1-4)GlcNAc(b1-3)Gal(b1-4)GlcNAc(b1-3)Gal(b1-4)GlcNAc(b1-2)Man(a1-3)]Man(b1-4)GlcNAc(b1-4)[Fuc(a1-6)]GlcNAc
# How it was run: as §1
# [11] = molecular target: GlcNAc(b1-3)Gal(b1-4)GlcNAc(b1-3)Gal(b1-4)GlcNAc(b1-3)Gal(b1-4)GlcNAc(b1-3)Gal(b1-4)GlcNAc(b1-2)Man(a1-3)[GlcNAc(b1-3)Gal(b1-4)GlcNAc(b1-3)Gal(b1-4)GlcNAc(b1-3)Gal(b1-4)GlcNAc(b1-3)Gal(b1-4)GlcNAc(b1-2)Man(a1-6)]Man(b1-4)GlcNAc(b1-4)GlcNAc
# How it was run: as §1
# [12] = molecular target: GlcNAc(b1-3)Gal(b1-4)GlcNAc(b1-3)Gal(b1-4)GlcNAc(b1-3)Gal(b1-4)GlcNAc(b1-3)Gal(b1-4)GlcNAc(b1-2)Man(a1-3)[GlcNAc(b1-3)Gal(b1-4)GlcNAc(b1-3)Gal(b1-4)GlcNAc(b1-3)Gal(b1-4)GlcNAc(b1-3)Gal(b1-4)GlcNAc(b1-2)Man(a1-6)]Man(b1-4)GlcNAc(b1-4)[Fuc(a1-6)]GlcNAc
# How it was run: as §1
# [13] = molecular target: GlcNAc(b1-3)Gal(b1-4)GlcNAc(b1-3)Gal(b1-4)GlcNAc(b1-3)Gal(b1-4)GlcNAc(b1-3)Gal(b1-4)GlcNAc(b1-2)[GlcNAc(b1-3)Gal(b1-4)GlcNAc(b1-3)Gal(b1-4)GlcNAc(b1-3)Gal(b1-4)GlcNAc(b1-3)Gal(b1-4)GlcNAc(b1-6)]Man(a1-6)[GlcNAc(b1-3)Gal(b1-4)GlcNAc(b1-3)Gal(b1-4)GlcNAc(b1-3)Gal(b1-4)GlcNAc(b1-3)Gal(b1-4)GlcNAc(b1-2)Man(a1-3)]Man(b1-4)GlcNAc(b1-4)[Fuc(a1-6)]GlcNAc
# How it was run: as §1
# [14] = molecular target: GlcNAc(b1-3)Gal(b1-4)GlcNAc(b1-3)Gal(b1-4)GlcNAc(b1-3)GalNAc
# How it was run: as §1
# [15] = molecular target: GlcNAc(b1-3)Gal(b1-4)GlcNAc(b1-3)GalNAc
# How it was run: as §1
# [16] = molecular target: GlcNAc(b1-3)Gal(b1-4)GlcNAc(b1-3)[GlcNAc(b1-3)Gal(b1-4)GlcNAc(b1-3)]GalNAc
# How it was run: as §1
# [17] = molecular target: GlcNAc(b1-3)Gal(b1-4)GlcNAc(b1-6)[Gal(b1-3)]GalNAc
# How it was run: as §1
# [18] = molecular target: GlcNAc(b1-3)Gal(b1-4)GlcNAc(b1-6)[GlcNAc(b1-3)Gal(b1-3)]GalNAc
# How it was run: as §1
# [19] = molecular target: GlcNAc(b1-3)Gal(b1-4)GlcNAc(b1-6)[GlcNAc(b1-3)]Gal(b1-4)GlcNAc
# How it was run: as §1
binder,measurement,setting,value
"Gal 8 (Mus musculus), Q9JL15 (protein) MGGSHHHHHHGMASMLSLNNLQNIIYNPIIPYVGTITEQLKPGSLIVIRGHVPKDSERFQVDFQLGNSLKPRADVAFHFNPHFKRSSCIVCNTLTQEKWGWEEITYDMPFRKEKSFEIVFMVLKNKFQVAVNGRHVLLYAHRISPEQIDTVGIYGKVNIHSIGFRFSSASALPHTLGDLQSMETSALGLTQINRENIQKPGKLQLSLPFEARLNASMGPGRTVVIKGEVNTNARSFNVDLVAGKTRDIALHLNPHLNVKAFVRNSFLQDAWGEEERNITCFPFSSGMYFEMIIYCDVREFKVAINGVHSLEYKHRFKDLSSIDTLSVDGDIRLLDVRSW",glycan array binding signal (z-score),[1],-0.275
same,glycan array binding signal (z-score),[2],-0.179
same,glycan array binding signal (z-score),[3],-0.057
same,glycan array binding signal (z-score),[4],-0.26
same,glycan array binding signal (z-score),[5],1.24
same,glycan array binding signal (z-score),[6],1.7
same,glycan array binding signal (z-score),[7],5.44
same,glycan array binding signal (z-score),[8],4.25
same,glycan array binding signal (z-score),[9],3.12
same,glycan array binding signal (z-score),[10],4.84
same,glycan array binding signal (z-score),[11],7.01
same,glycan array binding signal (z-score),[12],6.24
same,glycan array binding signal (z-score),[13],6.71
same,glycan array binding signal (z-score),[14],-0.242
same,glycan array binding signal (z-score),[15],-0.257
same,glycan array binding signal (z-score),[16],-0.229
same,glycan array binding signal (z-score),[17],-0.251
same,glycan array binding signal (z-score),[18],-0.252
same,glycan array binding signal (z-score),[19],-0.362
